Here are results for 94 sequences from the supplement of paper PMC3334620.

Whole data set: some 33,000 sequences, median “E-score (-0.5 to 0.5)” near -0.043, cut for the highest 2% near 0.37. The list shows a part of the results.

For the experiment, the target named is T1, Upc2 (UniProt Q12151).
T1 sequence: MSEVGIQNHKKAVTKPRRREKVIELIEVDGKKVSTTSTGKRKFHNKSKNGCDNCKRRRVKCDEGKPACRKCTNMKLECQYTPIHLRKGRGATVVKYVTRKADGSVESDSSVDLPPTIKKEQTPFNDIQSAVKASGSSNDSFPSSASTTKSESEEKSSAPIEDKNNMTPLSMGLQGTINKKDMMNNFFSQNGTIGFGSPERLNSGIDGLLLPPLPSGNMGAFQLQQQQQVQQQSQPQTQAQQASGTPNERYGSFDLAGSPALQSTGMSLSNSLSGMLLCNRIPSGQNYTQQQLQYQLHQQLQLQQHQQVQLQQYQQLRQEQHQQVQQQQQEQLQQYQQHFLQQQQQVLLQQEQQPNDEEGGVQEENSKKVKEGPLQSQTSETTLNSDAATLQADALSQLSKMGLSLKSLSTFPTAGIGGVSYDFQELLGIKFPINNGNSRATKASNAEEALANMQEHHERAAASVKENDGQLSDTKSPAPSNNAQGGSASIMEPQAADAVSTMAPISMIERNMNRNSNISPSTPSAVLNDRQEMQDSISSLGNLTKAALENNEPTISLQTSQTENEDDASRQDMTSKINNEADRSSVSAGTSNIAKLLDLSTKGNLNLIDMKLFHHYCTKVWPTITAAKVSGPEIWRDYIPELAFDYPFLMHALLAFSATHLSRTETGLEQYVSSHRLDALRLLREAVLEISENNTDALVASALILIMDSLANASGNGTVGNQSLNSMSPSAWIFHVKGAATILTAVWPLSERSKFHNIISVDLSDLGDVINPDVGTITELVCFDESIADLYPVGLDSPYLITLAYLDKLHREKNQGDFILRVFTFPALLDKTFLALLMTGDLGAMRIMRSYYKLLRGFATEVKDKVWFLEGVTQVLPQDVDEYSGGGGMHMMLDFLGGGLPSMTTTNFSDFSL
Nature of the experiment: PBM E-score (8-mer binding enrichment) (E-score (-0.5 to 0.5)); higher = stronger / more preferred TF binding; most listed sequences are background and not binding sites. The settings on record: protein concentration: 200 nM; construct: GST-full length. As to the method: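 Universal 'all 10-mer' protein binding microarrays (Agilent AMADID 015681) probed with GST-tagged S. cerevisiae TFs (full-length or DBD) made by in vitro transcription/translation (PURExpress), about 100-200 nM. Bound TF was detected with fluorescent anti-GST. Each ungapped 8-mer (which stands for itself and its reverse complement) is scored by the PBM enrichment score (E-score), a modified Wilcoxon-Mann-Whitney statistic from -0.5 to +0.5, computed with the Universal PBM Analysis Suite. Scale: above 0.35 generally sequence-specific binding.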
In the case of GAATTAGC, the “PBM E-score” value is -0.0225.
Next, GAGATCAC: -0.0901; AGAAGTAC: -0.0345.
The result for AAAGTAAT reads -0.0147; that for TGCGCAAA, 0.0117.
The result for AACACACA reads -0.0132.
On to CATTTCTA, for which the “PBM E-score” value was determined as 0.0515.
Turning to AGAGTTGA, the “PBM E-score” value is 0.14.
Next, AGATTTCG: 0.293.
In the case of TGTACCAA, the “PBM E-score” value is 0.03.
For ACCGGCCG, the “PBM E-score” value stood at 0.00105.
The result for GAACCCAC reads 0.0834.
Next, GACGGGAA: 0.0979; GAAGTCCC: -0.176; ATGATACG: 0.354.
As for CTCTGGCC, the “PBM E-score” value was -0.103.
Next, GTGACCAA: -0.0895; CAAGCAAC: -0.0707; ACCGAAGA: 0.0781.
In the case of CTCGGCAA, the “PBM E-score” value is 0.0527.
Next, AATTCTAG: 0.0622.
Next, ATTGGCTA: 0.044; GTAACGTA: 0.283; CTTTATCC: 0.0916.
As for AGTTTAGA, the “PBM E-score” value is -0.00847.
Next, AAACACGT: -0.0244.
As for CCTATAAG, the “PBM E-score” value is 0.133.
Consider AGGTGGAA, for which the “PBM E-score” value is -0.0211.
The result for ACAAGTCG reads 0.0441; that for ACAGATCC, 0.0533; that for AATCAATT, -0.1.
As for AGGATACC, the “PBM E-score” value was -0.137.
As for AGGCACTA, the “PBM E-score” value was -0.0737.
Take AGCTAGCG: the “PBM E-score” value is 0.0852.
Next, ATACGTCC: 0.238; CCCCCTGC: -0.125.
With AGTCCTGC, the “PBM E-score” value was -0.166.
With CTGAGCAC, the “PBM E-score” value was -0.174.
GCAGACGC: the “PBM E-score” value was -0.0316.
Next, AAGGGGTC: -0.176.
On to GAGGTACA, for which the “PBM E-score” value was -0.065.
The result for GCCTCCCC reads -0.149.
With CTCGTCGA, the “PBM E-score” value was -0.029.
The result for AACTGAAT reads -0.0422; that for CTATTCGC, 0.06.
GTAATCAA: the “PBM E-score” value was determined as 0.00463.
The result for AACTATCT reads 0.155; that for AGGGTGAC, -0.128; that for GACCTTAA, -0.0857.
Next, CTATATCC: -0.175; ATATCCTC: -0.156.
The result for CGACATTC reads 0.23; that for AGAGTACT, -0.111.
As to CAACTTGG, the “PBM E-score” value amounted to 0.147.
As to AGGGTGAG, the “PBM E-score” value is -0.254.
The result for CCATGACA reads -0.184; that for CTGCTGGA, -0.353.
ATAAACTC: the “PBM E-score” value came to 0.0451.
Regarding ACCTATTA, the “PBM E-score” value is -0.0505.
The result for ACAAGCCA reads -0.042.
The result for CAGTATCG reads 0.028.
On to ATTCATAA, for which the “PBM E-score” value was -0.0501.
Next, CCGCACAG: 0.00333; CGGCAAGC: 0.0794.
For the sequence CCCTGGCG, the “PBM E-score” value was -0.196.
Regarding CTCGTGCC, the “PBM E-score” value is 0.0725.
Consider AGGCAATG, for which the “PBM E-score” value was -0.0822.
Regarding AGGCAGCA, the “PBM E-score” value was -0.0524.
The result for AAGGTGAT reads -0.095.
Next, CGTGCCAG: -0.166.
As to AATATAAT, the “PBM E-score” value was -0.0761.
Next, CCGACGAC: 0.0759.
With ACCACAAA, the “PBM E-score” value is -0.00424.
Next, CCTTAGAC: -0.117; CTCCATTA: -0.232.
CCTACGCA: the “PBM E-score” value was -0.196.
As for GCCATCAA, the “PBM E-score” value was -0.107.
The result for CGTCTTCC reads -0.142.
Next, TAACTTGA: -0.0099; AGCCTACT: -0.16.
Next, ATCGTCCC: -0.0699; AACCTCGC: 0.0636.
On to CCCTCCAG, for which the “PBM E-score” value was -0.196.
Turning to GACCGAGA, the “PBM E-score” value is 0.132.
The result for GTTGCCGA reads 0.16.
Next, AAGCGTCG: 0.0443; CGATGCTA: 0.0925.
Next, CATGACAC: -0.12; CCAACATA: 0.0425; CAAGTCTG: -0.272.
With CCCTAAGC, the “PBM E-score” value is -0.175.
Turning to CGTGCGCA, the “PBM E-score” value was -0.0833.
Next, CAGGGTGA: -0.223; AGTCGCTC: 0.0535.
